The supplement of paper PMC9151546
Many values rest on one well or one pass, so single values are uncertain.

Key:
CHO-K1 [1] = test: relative survival (nuclei to bead ratio vs DMSO control) (% of vehicle control); higher = more surviving cells
CHO-K1 [2] = test: micronucleus frequency (% of nucleated events); higher = more micronuclei (genotoxic)
CHO-K1 [3] = test: hypodiploid nuclei frequency (% of nucleated events); higher = more hypodiploid events (aneugenic)
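Throughout, for hypodiploid nuclei frequency (% of nucleated events): hypodiploid nuclei gated on a flow cytometer with 488 nm excitation after SYTOX Green staining, cultures at 37 °C, positive controls vinblastine without S9 and cyclophosphamide with S9.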
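Throughout, for micronucleus frequency (% of nucleated events): cells lysed with nuclei stained by SYTOX Green, then micronucleus-gated events counted against nucleated events by flow cytometry with 488 nm excitation.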
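Throughout, for relative survival (nuclei to bead ratio vs DMSO control): Lysed-cell nuclei stained with SYTOX Green and counted against counting beads by flow cytometry at 488 nm excitation, with vinblastine (no S9) and cyclophosphamide (plus S9) as positive controls.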

CCN(CC)C(=O)SCc1ccc(Cl)cc1 [Thiobencarb]
Conditions	hypodiploid nuclei frequency, CHO-K1 [3] [%]	micronucleus frequency, CHO-K1 [2] [%]	relative survival, CHO-K1 [1]
concentration: 4.5 (µM), S9 metabolic activation: with S9, exposure time: 3-4 hours	0.48	1.6	89.8
concentration: 4.5 (µM), S9 metabolic activation: without S9, exposure time: 24 hours	0.75	2.06	142
concentration: 5.63 (µM), S9 metabolic activation: with S9, exposure time: 3-4 hours	0.28	1.22	84.6
concentration: 5.63 (µM), S9 metabolic activation: without S9, exposure time: 24 hours	0.95	1.68	115
concentration: 7.04 (µM), S9 metabolic activation: with S9, exposure time: 3-4 hours	0.35	1.27	87.2
concentration: 7.04 (µM), S9 metabolic activation: without S9, exposure time: 24 hours	0.67	1.47	135
concentration: 8.8 (µM), S9 metabolic activation: with S9, exposure time: 3-4 hours	0.29	1.23	89.2
concentration: 8.8 (µM), S9 metabolic activation: without S9, exposure time: 24 hours	0.64	1.79	158
concentration: 11 (µM), S9 metabolic activation: with S9, exposure time: 3-4 hours	0.28	1.18	88.2
concentration: 11 (µM), S9 metabolic activation: without S9, exposure time: 24 hours	0.92	2.02	116
concentration: 13.7 (µM), S9 metabolic activation: with S9, exposure time: 3-4 hours	0.26	1.54	95
concentration: 13.7 (µM), S9 metabolic activation: without S9, exposure time: 24 hours	0.78	2.25	112
concentration: 17.2 (µM), S9 metabolic activation: with S9, exposure time: 3-4 hours	0.26	1.35	105
concentration: 17.2 (µM), S9 metabolic activation: without S9, exposure time: 24 hours	0.73	2.33	124
concentration: 21.5 (µM), S9 metabolic activation: with S9, exposure time: 3-4 hours	0.28	1.84	92.2
concentration: 21.5 (µM), S9 metabolic activation: without S9, exposure time: 24 hours	0.74	1.54	105
concentration: 26.8 (µM), S9 metabolic activation: with S9, exposure time: 3-4 hours	0.225	0.81	62.1
concentration: 26.8 (µM), S9 metabolic activation: without S9, exposure time: 24 hours	1.02	3.03	117
concentration: 33.6 (µM), S9 metabolic activation: with S9, exposure time: 3-4 hours	0.24	0.97	93.8
concentration: 33.6 (µM), S9 metabolic activation: without S9, exposure time: 24 hours	1.12	1.75	128
concentration: 41.9 (µM), S9 metabolic activation: with S9, exposure time: 3-4 hours	0.27	1.17	78.7
concentration: 41.9 (µM), S9 metabolic activation: without S9, exposure time: 24 hours	0.79	1.97	109
concentration: 52.4 (µM), S9 metabolic activation: with S9, exposure time: 3-4 hours	0.405	0.89	58.9
concentration: 52.4 (µM), S9 metabolic activation: without S9, exposure time: 24 hours	0.82	2.11	98.5
concentration: 65.5 (µM), S9 metabolic activation: with S9, exposure time: 3-4 hours	1.04	1.82	57.5
concentration: 65.5 (µM), S9 metabolic activation: without S9, exposure time: 24 hours	0.62	1.93	106
concentration: 81.9 (µM), S9 metabolic activation: with S9, exposure time: 3-4 hours	–	–	42.4
concentration: 81.9 (µM), S9 metabolic activation: without S9, exposure time: 24 hours	0.99	2.21	109
concentration: 102 (µM), S9 metabolic activation: with S9, exposure time: 3-4 hours	–	–	29.9
concentration: 102 (µM), S9 metabolic activation: without S9, exposure time: 24 hours	0.91	2.23	87.6
concentration: 128 (µM), S9 metabolic activation: with S9, exposure time: 3-4 hours	–	–	17.6
concentration: 128 (µM), S9 metabolic activation: without S9, exposure time: 24 hours	1.32	2.28	94.8
concentration: 160 (µM), S9 metabolic activation: with S9, exposure time: 3-4 hours	–	–	6.22
concentration: 160 (µM), S9 metabolic activation: without S9, exposure time: 24 hours	1.27	2.99	79.2
concentration: 200 (µM), S9 metabolic activation: with S9, exposure time: 3-4 hours	–	–	1.13
concentration: 200 (µM), S9 metabolic activation: without S9, exposure time: 24 hours	1.13	1.96	57.3
